# Results taken from the supplement of paper PMC7826260.
# The list shows a part of the results. Viral Rep nickase domains cut single-stranded DNA in vitro at 3 µM enzyme and 37 °C for 1 h; the strands have 90 letters, of which the middle is given. Values are log2 of uncut reads against the no-enzyme pool; uncut sequences lie near 0, cut ones below; no hit call is given. Reads are scaled to the total; where an enzyme cuts many sequences, the uncut ones exceed 0.
# What was measured:
# Assay in all cases: uncleaved DNA left, log2 of reads against the no-enzyme library (log2 ratio); higher = less cleavage (more negative = more Rep cleavage of the k-mer); sequences stand for … in CTCGTCCG…ACCGGAGA
# [1] = tested on: T1, Rep nickase domain of Muscovy duck circovirus
# T1 sequence (protein, residues 1-111, tag omitted): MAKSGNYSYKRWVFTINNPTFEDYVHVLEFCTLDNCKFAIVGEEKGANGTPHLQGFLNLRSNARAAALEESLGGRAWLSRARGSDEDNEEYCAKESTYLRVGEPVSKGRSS
# Description: (§1)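 A pool of 90-nt single-stranded DNAs with seven random bases just before the constant AC of the nick site (name = the seven bases) was cut by 3 µM recombinant His6-SUMO-tagged Rep nickase domain (300 nM DNA, 50 mM HEPES pH 8.0, 50 mM NaCl, 1 mM MnCl2, 1 h, 37 °C, three replicates). Uncut DNA was amplified and sequenced.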
# [2] = tested on: T2, Rep nickase domain of banana bunchy top virus
# T2 sequence (protein, residues 1-94, tag omitted): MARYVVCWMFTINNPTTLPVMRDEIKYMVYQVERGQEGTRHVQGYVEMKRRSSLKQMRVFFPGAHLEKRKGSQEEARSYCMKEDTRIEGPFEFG
# Description: as §1
# [3] = tested on: T3, Rep nickase domain of cabbage leaf curl virus
# T3 sequence (protein, residues 1-116, tag omitted): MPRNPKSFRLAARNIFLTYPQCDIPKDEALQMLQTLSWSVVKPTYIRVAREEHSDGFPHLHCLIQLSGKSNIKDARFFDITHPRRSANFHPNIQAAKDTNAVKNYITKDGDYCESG
# Description: as §1
# [4] = tested on: T4, Rep nickase domain of chickpea chlorotic dwarf virus
# T4 sequence (protein, residues 1-124, tag omitted): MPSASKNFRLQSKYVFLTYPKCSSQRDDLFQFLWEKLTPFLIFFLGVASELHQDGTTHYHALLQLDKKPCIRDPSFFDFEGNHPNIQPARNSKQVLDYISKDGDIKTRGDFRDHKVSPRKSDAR
# Description: as §1
# [5] = tested on: T5, Rep nickase domain of faba bean necrotic yellows virus
# T5 sequence (protein, residues 1-98, tag omitted): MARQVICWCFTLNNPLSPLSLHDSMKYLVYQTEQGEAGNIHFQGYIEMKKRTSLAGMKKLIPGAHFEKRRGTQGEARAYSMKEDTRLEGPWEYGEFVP
# Description: as §1
# [6] = tested on: T6, Rep nickase domain of maize striate mosaic virus
# T6 sequence (protein, residues 1-117, tag omitted): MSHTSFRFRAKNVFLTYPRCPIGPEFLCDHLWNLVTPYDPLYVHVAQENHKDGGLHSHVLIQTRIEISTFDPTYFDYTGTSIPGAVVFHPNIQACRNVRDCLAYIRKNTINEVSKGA
# Description: as §1
# [7] = tested on: T7, Rep nickase domain of porcine circovirus 2
# T7 sequence (protein, residues 2-116, tag omitted): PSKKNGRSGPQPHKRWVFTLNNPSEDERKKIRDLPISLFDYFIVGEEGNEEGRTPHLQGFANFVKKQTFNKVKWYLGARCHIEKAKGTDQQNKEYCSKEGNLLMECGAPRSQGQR
# Description: as §1
# [8] = tested on: T8, Rep nickase domain of tomato golden mosaic virus
# T8 sequence (protein, residues 1-124, tag omitted): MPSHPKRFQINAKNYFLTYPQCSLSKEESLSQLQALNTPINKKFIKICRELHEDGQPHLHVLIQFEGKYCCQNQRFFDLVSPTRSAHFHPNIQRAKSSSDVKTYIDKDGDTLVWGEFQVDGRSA
# Description: as §1
# [9] = tested on: T9, Rep nickase domain of tomato yellow leaf curl virus
# T9 sequence (protein, residues 1-136, tag omitted): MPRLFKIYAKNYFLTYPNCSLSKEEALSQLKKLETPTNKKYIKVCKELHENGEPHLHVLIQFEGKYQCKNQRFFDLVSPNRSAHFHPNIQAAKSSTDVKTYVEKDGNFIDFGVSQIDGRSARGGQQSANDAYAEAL
# Description: as §1
# [10] = tested on: T10, Rep nickase domain of wheat dwarf virus
# T10 sequence (protein, residues 1-137, tag omitted): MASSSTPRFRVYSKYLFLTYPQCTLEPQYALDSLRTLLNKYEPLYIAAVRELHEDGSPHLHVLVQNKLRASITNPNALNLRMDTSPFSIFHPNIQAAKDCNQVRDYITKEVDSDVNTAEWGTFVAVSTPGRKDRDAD
# Description: as §1
Sequence,uncleaved DNA left (log2) [1],uncleaved DNA left (log2) [2],uncleaved DNA left (log2) [3],uncleaved DNA left (log2) [4],uncleaved DNA left (log2) [5],uncleaved DNA left (log2) [6],uncleaved DNA left (log2) [7],uncleaved DNA left (log2) [8],uncleaved DNA left (log2) [9],uncleaved DNA left (log2) [10]
GGCGCGT,0.0527,-0.0502,0.275,0.648,0.00278,0.789,0.209,-7.57e-05,-0.0779,0.0269
CCGAGAT,0.136,0.125,0.549,1.24,0.0843,1.61,0.173,0.238,-0.0783,-0.0313
ACTAAAT,0.0306,0.0383,-0.097,-0.611,-0.0579,-0.604,-0.619,0.149,-0.0578,0.181
ACCGTTC,-0.119,-0.138,-0.357,-0.724,-0.0775,-0.939,-0.162,-0.115,-0.177,-0.261
GCTTCAA,0.131,0.0745,0.183,0.54,0.092,0.452,0.097,0.057,0.059,0.109
TCGTAGT,-1.14,-0.0582,-0.131,-0.569,-0.521,-0.525,-3.62,-0.12,0.0945,-0.141
ATTCACC,0.053,-0.00872,0.0354,-0.385,-0.0538,-0.65,-0.196,0.0986,-0.00255,0.0491
ATAGGAT,0.196,0.0329,0.293,1.68,-0.0254,1.88,0.192,0.0962,-0.107,0.077
TTAAGGT,0.0274,0.0388,-0.652,-1.93,0.114,1.66,0.0689,0.0635,-0.0553,-0.0276
GCCGATT,0.176,-0.239,0.0928,-0.517,0.148,0.185,-0.335,-0.0664,-0.087,-0.146
CGAGATT,-0.132,-0.161,0.0277,-1.2,-0.0127,-0.078,-0.611,-0.0389,0.0379,-0.114
CCTCCAT,0.0772,0.0897,0.191,-0.366,-0.0269,-0.255,0.0617,-0.0351,0.0924,0.105
ACAACTA,-0.134,-0.0554,-0.309,-1.82,-0.0364,-0.853,-0.0669,-0.0259,-0.172,0.0152
GCGGTCA,0.0623,-0.0533,0.62,1.26,0.0307,1.73,0.148,-0.0115,0.0447,0.0685
AGTAGGT,0.114,0.00309,0.422,1.07,0.0548,1.33,-3,0.124,-0.0929,0.0674
TCGGACA,-0.0258,-0.0475,0.681,1.44,-0.0973,1.87,0.156,-0.0436,0.0239,0.153
GGGGACT,0.0376,0.227,0.99,2.06,-0.0665,2.4,0.28,0.108,0.111,0.144
TGTTGAC,0.0526,-0.133,0.319,0.491,-0.0407,0.338,0.0165,-0.0844,-0.0564,0.0501
CAGCTGT,0.0691,0.0754,0.346,1.49,0.175,1.65,-0.0357,0.00146,-0.101,-0.0406
ATCGCGT,-0.0432,-0.0438,-0.817,-0.0696,-0.0822,-0.767,0.136,-0.0126,0.0659,-0.0832
CGCTGTT,-1.94,-0.548,-0.4,-0.841,-0.349,0.438,-2.92,-0.268,-0.318,-0.292
GCTAGTA,-0.0155,0.0494,0.0381,0.129,0.01,0.176,-0.0103,0.149,-0.00225,0.00827
CTAGGTA,-0.00325,0.0839,0.325,0.892,0.13,1.16,-0.0152,0.0385,0.0777,0.086
TTCGAAA,-0.196,-0.127,0.128,0.108,-0.075,-0.363,0.00829,-0.065,-0.0646,-0.0323
CCGTCAG,0.0294,0.0427,-0.504,-0.309,0.0817,-0.819,0.18,0.0509,0.00387,-0.159
AGAAGCC,0.0551,0.073,0.013,0.121,0.0884,-0.387,0.0761,0.105,0.0021,-0.0378
TTTCAAG,0.0693,-0.0654,-0.87,-0.793,-0.0171,-1.24,0.0666,-0.124,-0.0654,-0.173
ACGTTAG,-0.0744,-0.124,-0.845,-0.554,-0.0316,-1.33,0.194,-0.143,0.0173,-0.169
CGCCATT,-0.0421,-0.234,-0.0248,-1.07,-0.157,-0.367,-0.812,-0.0977,0.0713,0.0191
CCGCTGC,-0.131,-0.351,-0.414,-0.124,-0.17,-0.37,-0.0365,-0.191,-0.197,-0.372
